Source: US20060052582A1 (published 2006)

Biological target: T1, FLAG Nercc (1-739) (human, UniProt Q8TD19 1-739)
T1 sequence: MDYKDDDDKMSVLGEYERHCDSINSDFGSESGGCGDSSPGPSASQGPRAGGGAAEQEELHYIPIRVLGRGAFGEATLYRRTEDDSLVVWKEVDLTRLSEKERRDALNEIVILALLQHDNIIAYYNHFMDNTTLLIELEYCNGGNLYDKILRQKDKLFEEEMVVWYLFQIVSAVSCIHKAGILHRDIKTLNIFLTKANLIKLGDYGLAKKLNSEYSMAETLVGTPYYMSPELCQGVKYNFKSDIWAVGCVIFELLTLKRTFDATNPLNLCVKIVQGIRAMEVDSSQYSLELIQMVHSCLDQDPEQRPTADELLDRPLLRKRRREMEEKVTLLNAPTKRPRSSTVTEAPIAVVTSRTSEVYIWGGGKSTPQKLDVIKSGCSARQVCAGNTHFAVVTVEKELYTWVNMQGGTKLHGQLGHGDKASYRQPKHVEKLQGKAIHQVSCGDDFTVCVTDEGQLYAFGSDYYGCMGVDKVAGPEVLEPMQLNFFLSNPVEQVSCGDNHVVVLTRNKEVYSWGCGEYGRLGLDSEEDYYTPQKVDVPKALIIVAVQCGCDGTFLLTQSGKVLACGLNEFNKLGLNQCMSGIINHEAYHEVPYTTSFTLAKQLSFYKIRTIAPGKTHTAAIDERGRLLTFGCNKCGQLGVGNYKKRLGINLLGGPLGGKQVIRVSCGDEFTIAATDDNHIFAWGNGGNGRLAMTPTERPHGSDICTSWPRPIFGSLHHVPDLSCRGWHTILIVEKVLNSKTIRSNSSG
Experiment: GSH-agarose pull-down from co-transfected 293 cells, anti-FLAG blot
Method: Inasmuch as the p120 Nercc kinase was identified as a protein that co-purified with the protein kinase Nek6, it was of interest to confirm this association by co-expression of a GST Nek6 fusion protein and a FLAG Nercc fusion protein in 293 cells. Several fusion proteins of full-length and truncated Nercc1 and Nek6 were prepared to test the interaction between Nercc and Nek6 using antibodies to FLAG and GST. Recombinant GST Nek6 fusion protein was affinity purified on glutathione (GSH)-agarose, and the eluate was probed with anti-FLAG antibody.

B1: GST Nek6 (enzyme)
chain: [letters of about 200 residues left out]SDLVPRGSPGMAGQPGHMPHGGSSNNLCHTLGPVHPPDPQRHPNTLSFRCSLADFQIEKKIGRGQFSEVYKATCLLDRKTVALKKVQIFEMMDAKARQDCVKEIGLLKQLNHPNIIKYLDSFIEDNELNIVLELADAGDLSQMIKYFKKQKRLIPERTVWKYFVQLCSAVEHMHSRRVMHRDIKPANVFITATGVVKLGDLGLGRFFSSETTAAHSLVGTPYYMSPERIHENGYNFKSDIWSLGCLLYEMAALQSPFYGDKMNLFSLCQKIEQCDYPPLPGEHYSEKLRELVSMCICPDPHQRPDIGYVHQVAKQMHIWMSST
notes: Expressed in 293 cells (pEBG) for pull-downs; also called wild type GST Nek6; GST Nek6 fusion protein
Q: Does B1 bind?
A: no binding
